Laboratory results as given in the supplement of paper PMC4604168 (melanoma cell lines).
The other results are listed elsewhere or left out. Most values come without repeats; read them as rough.

System: A2058
Test: cell count relative to DMSO control; melanoma cells; higher = more viable cells
Conditions: library dose: low library concentration; 72 h
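Also: cell number obtained by counting DAPI-stained nuclei in high-throughput microscope images with image analysis software, screen run in 1,536-well plates.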

SMILES | cell count
O=C(/C=C/c1cccnc1)NCCCCC1CCN(C(=O)c2ccccc2)CC1 + COc1cc2ncnc(Nc3ccc(Oc4ccccc4)cc3)c2cc1OC [SrcI1] (first compound 0.01 µM, partner dose 2 µM) | 107%
O=C(/C=C/c1cccnc1)NCCCCC1CCN(C(=O)c2ccccc2)CC1 + O=S(=O)(c1ccccc1)N(CC(F)(F)F)c1ccc(C(O)(C(F)(F)F)C(F)(F)F)cc1 [T0901317] (first compound 0.01 µM, partner dose 1.4 µM) | 103%
CC1(C)CCC(c2ccc(Cl)cc2)=C(CN2CCN(c3ccc(C(=O)NS(=O)(=O)c4ccc(N[C@H](CCN5CCOCC5)CSc5ccccc5)c(S(=O)(=O)C(F)(F)F)c4)cc3)CC2)C1 + COc1cc(N2CCC(N3CCN(C)CC3)CC2)ccc1Nc1ncc(Cl)c(Nc2ccccc2S(=O)(=O)C(C)C)n1 [NVP-TAE684] (first compound 0.4 µM, partner dose 0.08 µM) | 81.6%
Cc1ccc(Nc2nccc(N(C)c3ccc4c(C)n(C)nc4c3)n2)cc1S(N)(=O)=O [Pazopanib] + CCN(CC)CCCCNc1ncc2cc(-c3cc(OC)cc(OC)c3)c(NC(=O)NC(C)(C)C)nc2n1 [PD173074] (first compound 0.4 µM, partner dose 0.1 µM) | 100%
CC1(C)CCC(c2ccc(Cl)cc2)=C(CN2CCN(c3ccc(C(=O)NS(=O)(=O)c4ccc(N[C@H](CCN5CCOCC5)CSc5ccccc5)c(S(=O)(=O)C(F)(F)F)c4)cc3)CC2)C1 + O=C(Nc1ccccc1)c1cc([N+](=O)[O-])ccc1Cl [GW9662] (first compound 0.4 µM, partner dose 2 µM) | 96%
